PubChem BioAssay AID624417 (National Center for Advancing Translational Sciences (NCATS), 2012)
In all, about 410,000 compounds went through this assay and about 6,400 (1.6%) were called active. Inconclusive means that the source gave no clear call. Such entries were picked first, then a sample of the others. Calls come from the whole dose curve; as a rule, active = well fitted inhibition curve with a large enough effect; inconclusive = small, poorly fitted or top-dose-only effect; inactive = no such curve, though single readings can be large or run the other way. No potency is given beside an inconclusive call; the fits are too rough.

These molecules were tested against Glucagon-like peptide 1 receptor (Homo sapiens) (UniProt P43220) (assay: qHTS of GLP-1 Receptor Inverse Agonists (Inhibition Mode)). Conditions: HEK293 GLP-1R CRE-luciferase, luminescence, 24 h, GLP-1R form is constitutively active; activity change, negative = inhibition: at 38.3 µM (top of the series) unless noted.
UniProt P43220, sequence (P43220 whole entry, looked up): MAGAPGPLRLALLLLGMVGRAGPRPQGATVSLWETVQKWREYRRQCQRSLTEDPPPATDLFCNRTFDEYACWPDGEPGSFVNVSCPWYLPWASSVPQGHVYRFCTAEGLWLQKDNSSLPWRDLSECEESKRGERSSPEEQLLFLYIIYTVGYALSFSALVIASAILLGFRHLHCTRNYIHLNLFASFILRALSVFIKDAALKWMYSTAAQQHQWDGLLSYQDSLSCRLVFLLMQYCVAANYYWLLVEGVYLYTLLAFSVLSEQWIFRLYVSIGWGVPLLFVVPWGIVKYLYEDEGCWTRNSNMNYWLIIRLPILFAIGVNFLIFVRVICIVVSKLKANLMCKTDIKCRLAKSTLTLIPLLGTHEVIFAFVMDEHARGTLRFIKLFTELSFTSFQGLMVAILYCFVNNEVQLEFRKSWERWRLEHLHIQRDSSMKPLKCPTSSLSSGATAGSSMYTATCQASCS
In short: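 HEK293 cells stably co-expressing a cAMP-responsive luciferase reporter and constitutively active GLP-1R were seeded, incubated 12 h, then exposed to compounds for 24 h at 37 C. Luminescence was read 12 min after detection reagent; inverse agonists lower signal.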
% is set by controls: 0 for no effect and ±100 for the full control effect; potency is the fitted concentration of half-maximal effect; tags give direction and shape of the fitted curve.
Note: nearly all actives have a fitted effect of over 55% in size.

Row | Structure (SMILES) | Potency | activity change, negative = inhibition
1 | Cc1ccc(C)c(NC(=O)CSc2n[nH]c(-c3ccccn3)n2)c1 | inconclusive [inhibitor, single point] | 
2 | CCC(c1nnnn1Cc1ccccc1)N1CCN(c2ccc(OC)cc2)CC1 (centres undefined) | inconclusive [inhibitor, partial curve, poor fit] | 
3 | CCN(CC)CC#CCC(O)(c1ccccc1)C1CCCC1 (centres undefined) | inconclusive [inhibitor, partial curve, poor fit] | 
4 | O=C(CC1C(=O)N(c2ccc(F)cc2)C(=O)N1Cc1ccc2c(c1)OCO2)Nc1ccc(Cl)cc1 (centres undefined) | inconclusive [inhibitor, partial curve, poor fit] | 
5 | NS(=O)(=O)c1ccc(NC(=O)COC(=O)C23CC4CC(CC(C4)C2)C3)cc1 | inconclusive [inhibitor, single point] | 
6 | CCCCNC(=O)C1CCN(c2nc(C)cc(C)n2)CC1 | inactive | 
7 | CC(NCC(O)COCc1ccc(Cl)cc1)c1ccccc1 (centres undefined) | inconclusive [inhibitor, partial curve, poor fit] | 
8 | CCn1cc(C2=NCCO2)c2ccccc21 | inconclusive [inhibitor, partial curve, poor fit] | 
9 | O=C(NCCNC(=O)c1cc(OCC(F)(F)F)ccc1OCC(F)(F)F)Nc1ccccc1 | inconclusive [inhibitor, single point] | 
10 | CCOc1ccc2oc(C(=O)N(Cc3nnc(-c4ccccc4Cl)o3)C3CC3)c(C)c2c1 | inconclusive [inhibitor, partial curve, poor fit] | 
11 | O=C(CSc1oc(-c2ccccc2)nc1S(=O)(=O)c1ccc(Cl)cc1)c1ccccc1 | inconclusive [inhibitor, single point] | 
12 | O=[N+]([O-])c1cc(Cc2ccccc2)cc(C=Nc2ccc(N3CCOCC3)cc2)c1O | inconclusive [inhibitor, single point] | 
13 | CCOc1ccc(-c2nn(-c3ccccc3)cc2C2NC(=O)NC(C)=C2C(=O)OC(C)C)cc1 (centres undefined) | inconclusive [inhibitor, single point] | 
14 | CSc1nc(Nc2ccc(F)cc2)cc(-c2ccccc2)n1 | inconclusive [inhibitor, partial curve, poor fit] | 
15 | S=c1nc(C2CCCCC2)n(-c2ccccc2)[nH]1 | inconclusive [inhibitor, partial curve] | 
16 | Cc1ccccc1OCCNc1cc(N2CCN(CCO)CC2)ccc1[N+](=O)[O-] | inconclusive [inhibitor, partial curve, poor fit] | 
17 | O=C(O)/C=C/C(=O)NC1CCCCCCCCCCC1 | inconclusive [inhibitor, partial curve, poor fit] | 
18 | COc1ccccc1-n1cc([C@@H]2C[C@H]3CN(c4ccccc4)C(=O)[C@]34CCCN24)cn1 | inconclusive [inhibitor, partial curve, poor fit] | 
19 | CCOC(=O)C1(Cc2ccccc2)CCN(Cc2ccc(COC)o2)CC1 | inconclusive [inhibitor, single point] | 
20 | CSc1sc(-c2nnc(SCC(=O)Nc3ccccc3)n2C)c2c1C=CCC2 | inconclusive [inhibitor, full curve] | 

Row | Structure (SMILES) | Potency | activity change, negative = inhibition
21 | CC(C)OC(=O)NC(C)(C)COC(=O)Nc1cccc(Cl)c1 | inconclusive [inhibitor, single point] | 
22 | O=C(NC1CCCCC1)c1ccc(Cn2cc(Br)cn2)o1 | inconclusive [inhibitor, single point] | 
23 | CCSc1nnc(NC(=O)CSc2nc3c(c(=O)n2C)SC(C)C3)s1 (centres undefined) | inconclusive [inhibitor, single point] | 
24 | C=CCn1c(SCc2cccc(F)c2)nc2cc(C(=O)N3CCC(C(N)=O)CC3)ccc2c1=O | inconclusive [inhibitor, single point] | 
25 | CCCc1nn(-c2cc(Cl)ccc2OC)c2c1C(=O)CC(C)(C)C2 | inconclusive [inhibitor, partial curve, poor fit] | 
26 | CCn1c(=O)cc(SCC(=O)NCc2cccc(Cl)c2)c2ccccc21 | inconclusive [inhibitor, full curve, poor fit] | 
27 | C[C@H](CO)N1C[C@H](C)[C@H](CN(C)C(=O)Nc2ccc(F)cc2)OCc2ccccc2-c2c(n(C)c3ccccc23)C1=O | active: 10 µM | 
28 | Cc1ccc(NC(=O)CN(C)C(=O)c2cccc(S(=O)(=O)N3CCc4ccccc43)c2)cc1 | active: 11.2 µM | 
29 | Fc1ccc(COc2ccc(-c3nnco3)cc2)c(Cl)c1 | inactive | 
30 | CCc1cc2c(CN3CCN(Cc4ccccc4)CC3)cc(=O)oc2cc1O | inconclusive [inhibitor, single point] | 
31 | CN1CCC(OC(=O)COc2ccc(Br)cc2)CC1 |  | inactive: 1.97% [at 7.66 µM]
32 | CCN1C(=O)c2ccccc2Sc2ccc(NC(=O)N3CCN(c4cc(C)ccc4C)CC3)cc21 | inconclusive [inhibitor, partial curve] | 
33 | CC(C)(C)OC(=O)N1CCC(c2c(C(=O)NCCN3CCc4ccccc4C3)cnn2-c2ccc(F)cc2)CC1 | inconclusive [inhibitor, single point] | 
34 | COc1ccc([C@@]2(C(C)C)ON(c3ccccc3C(F)(F)F)C2=O)cc1 | inconclusive [inhibitor, partial curve, poor fit] | 
35 | CCn1c(CNC(=O)c2ccco2)nnc1SCC(=O)Nc1ccc(Br)cc1F | inconclusive [inhibitor, partial curve, poor fit] | 
36 | CC(C)c1ccc(OCc2nnc(SCC(=O)N3CCCCC3)o2)cc1 | inconclusive [inhibitor, single point] | 
37 | CC(C)c1ccc(OCC(=O)NCCS(=O)(=O)N2CCN(c3ccc(F)cc3)CC2)cc1 | inactive | 
38 | Cc1c(Cl)cccc1NC(=O)c1ccc2c(c1)CCCN2S(C)(=O)=O | inactive | 
39 | CN(CC(=O)Nc1ccc(Cl)c(C(F)(F)F)c1)C(=O)c1cccc2cccnc12 | inconclusive [inhibitor, partial curve] | 
